# In all, about 340,000 compounds went through this assay and about 12,000 (3.5%) were called active. Inconclusive results, whose numbers are uncertain, are shown with a selection of clear calls. Calls follow the shape of the dose curve; as a rule, active = well fitted inhibition curve with a large enough effect; inconclusive = small, poorly fitted or top-dose-only effect, or another doubt; inactive = no such curve, though single readings can be large or run the other way. Potencies of inconclusive entries are left out as doubtful fits.
# Assay: qHTS Assay for Inhibitors of Hepatitis C Virus (HCV)
# Conditions: Huh7.5.1 HCVcc-Cre (HCVcc is cell-culture hepatitis C virus) infection, luciferase reporter, 44 h; activity change, negative = inhibition: at 41.8 µM (top of the series) unless noted
# Method in brief: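 A cell-based infection assay in which seeded cells (1,000 per well) receive test compound after 4 h, are inoculated with HCVcc-Cre at approximately 0.5 moi, and are incubated 44 h before luminescence detection.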
# % is scaled to controls: 0 for no effect and ±100 for the full control effect; potency is read from the fitted curve at half-maximal effect; tags tell the direction and shape of the fitted curve.
Compound,Potency,"activity change, negative = inhibition"
Cc1cc(Nc2ccccc2)n(C(=O)c2ccc(N)cc2)n1,active: 12.6 µM,
COC(=O)c1cc(Br)ccc1NC(=O)CCNC(=O)c1ccco1,"inconclusive [inhibitor, single point]",
CC(C)(C)OC(=O)NNc1c2ccccc2nc2ccccc12,active: 2.82 µM,
COc1ccc(N(C)C(=O)Nc2ccc3nsnc3c2)cc1,"inconclusive [inhibitor, single point]",
CN(c1ncnc(N)c1[N+](=O)[O-])C1CCCCC1,"inconclusive [inhibitor, single point]",
Cc1cccc(NC(=S)NC2CCSc3ccccc32)c1 (stereo unspecified),"inconclusive [inhibitor, single point]",
COc1ccc2cc(CCNC(=O)c3cccc([N+](=O)[O-])c3)c(=O)[nH]c2c1,,inactive: -23.2%
N#Cc1c(SCc2ccccc2)nc(N2CCOCC2)c2c1CCCC2,"inconclusive [inhibitor, single point]",
Cc1nc(Nc2ccc(S(N)(=O)=O)cc2)sc1C(=O)Nc1ccccc1,"inconclusive [inhibitor, full curve, poor fit]",
Cc1cc(N2CCN(C)CC2)nc2ccc(NC(=O)CCC(=O)N3CCN(c4ccc([N+](=O)[O-])cc4)CC3)cc12,active: 11.2 µM,
COc1ccc(NC(=O)CN2CCN(S(=O)(=O)c3ccc(F)cc3)CC2)cc1Cl,"inconclusive [inhibitor, partial curve]",
Cc1cc(C)c(C#N)c(Nc2ccccc2)n1,,inactive: -11.1%
O=S(=O)(NCC(c1ccco1)N1CCN(c2ccc(F)cc2)CC1)c1ccc2c(c1)OCCO2 (stereo unspecified),"inconclusive [inhibitor, single point]",
Cc1cccc2c(N=NC(=O)c3ccc(NS(=O)(=O)c4cccs4)cc3)c(O)[nH]c12,"inconclusive [inhibitor, single point]",
COc1ccc(OC)c(/C=C/C(=O)N2CCCc3ccccc32)c1,active: 10 µM,
OC(CNc1ncnc2sccc12)c1ccccc1 (stereo unspecified),active: 3.16 µM,
CC(=O)c1cccc(NC(=O)C2=CN3CCS(=O)(=O)N=C3C=C2)c1,,inactive: 10.6%
CC1CCCN(c2ccc(C(=O)NCc3ccc4c(c3)OCO4)cc2[N+](=O)[O-])C1 (stereo unspecified),"inconclusive [inhibitor, single point]",

Compound,Potency,"activity change, negative = inhibition"
Oc1ccc(Br)cc1/C=N/Nc1ncc(-c2ccccc2)cn1,,inactive: 0.492%
O=C1/C(=C\c2cc3c(cc2Br)OCO3)N2CCC1CC2,"inconclusive [inhibitor, single point]",
O=C(OCc1ccccc1)c1cc(S(=O)(=O)N2CCCCC2)ccc1N1CCOCC1,"inconclusive [inhibitor, single point]",
COc1ccc(NC(=O)C2CCCN(c3cc(C)nc4ncnn34)C2)cc1 (stereo unspecified),,inactive: -47.5%
Cc1ccc(Cn2c(C(C)Nc3nc(-c4ccc(Cl)cc4)cs3)nc3cc(C(=O)NCCCO)ccc32)cc1 (stereo unspecified),"inconclusive [inhibitor, partial curve]",
Cc1onc(-c2ccccc2)c1C(=O)c1c[nH]c(C(=O)NCc2ccccn2)c1,active: 10 µM,
O=c1c2ccccc2nc(COc2ccccc2)n1/N=C/c1ccc(O)cc1O,"inconclusive [inhibitor, single point]",
COCCN(CCOC)c1ncnc2c1cnn2-c1ccc(Cl)cc1,"inconclusive [inhibitor, partial curve]",
Cc1cc(NC(=O)c2cc(-c3ccncc3)nc3c(C)cccc23)no1,"inconclusive [inhibitor, partial curve]",
CCN(CCNC(=O)c1cccc(N2CCCC2=O)c1)c1ccccc1,"inconclusive [inhibitor, single point]",
CCOc1ccc(NC(=O)C2CC(=O)N(c3ccc4c(c3)OCCO4)C2)cc1OCC (stereo unspecified),,inactive: -9.66%
COc1ccc2c(c1)Cc1sc(NC(=O)c3ccccc3)nc1-2,"inconclusive [inhibitor, single point]",
NC(=S)N/N=C1/CCSc2ccc3ccccc3c21,"inconclusive [inhibitor, single point]",
COc1ccc(-c2c(C)nn3c(N4CCN(Cc5ccccc5)CC4)cc(C)nc23)cc1OC,"inconclusive [inhibitor, single point]",
CCOC(=O)C1=NN(c2ccc(C)cc2)C2(S1)SC(C(C)=O)=C(C)N2c1ccccc1 (stereo unspecified),active: 14.1 µM,
Cc1ccc(NC(=O)c2cc(F)c(F)cc2Cl)nc1,,inactive: -14.1%
C(=N\NCc1ccccc1)/c1ccc2nccnc2c1,,inactive: -4.2%
Fc1ccccc1/C=N/Nc1ncnc2ccccc12,,inactive: 10.3%
